Measured values from PubChem BioAssay AID1345082 (National Center for Advancing Translational Sciences (NCATS), 2018).
“And” between values parts separate entries of the source, which are not always exact repeats. Equal entries are not always repeated. Among all 94,000 compounds or so, about 4,000 (4.3%) were called active. Inconclusive means that the source gave no clear call. Such entries were picked first, then a sample of the others. Calls follow the shape of the dose curve; as a rule, active = well fitted inhibition curve with a large enough effect; inconclusive = small, poorly fitted or top-dose-only effect; inactive = no such curve, though single readings can be large or run the other way. Potencies beside an inconclusive call are fits to weak or partial responses and may not hold up.

Assay: Cytotoxic Profiling in NIH 3T3 Cell Line of Diverse Libraries Using Quantitative High-Throughput Screening; also: nearly all actives have a fitted effect of over 55% in size
Conditions: NIH 3T3 viability, CellTiter-Glo ATP luminescence, 48-72 h; series mostly up to 96.7 µM
How it was run: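 Mouse fibroblast NIH 3T3 cells, 400 per well, received compound via pintool and were incubated for 48 or 72 hr prior to CellTiter-Glo ATP luminescence measurement.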
Potency is read from the fitted curve at half-maximal effect; tags tell the direction and shape of the fitted curve.

Row | Structure (SMILES) | Potency
1 | COc1ccc(C(=O)N[C@@H]2CCC[C@@H]2C(=O)NCc2ccc(C)o2)cn1 | inconclusive: 79.4 µM [inhibitor, partial curve, poor fit]
2 | COc1ccc(Cl)cc1C(=O)N1CCCN(c2cc(-c3ccccc3)[nH]n2)CC1 | inconclusive: 44.7 µM [inhibitor, partial curve, poor fit]
3 | COc1ccccc1-c1ccc(C(=O)N2CCC(NC(=O)N(C)C)CC2)cc1 | inactive
4 | Cc1oc(-c2cc(F)ccc2F)nc1CN1CCN(c2ccccc2)CC1C (stereo unspecified) | inactive
5 | CC(C)c1noc([C@@H]2Cc3nc[nH]c3CN2C(=O)Nc2ccc(Cl)cc2)n1 | active: 89.1 µM
6 | O=C(NCCOc1ccccc1)c1cnc2n1CCN(CC1CCOCC1)CC2 | inactive
7 | FC(F)(F)c1ccc(CN2CCCC3(CC(c4cccnc4)=NO3)C2)cc1 (stereo unspecified) | inactive
8 | CN(Cc1ncc[nH]1)C(=O)C1CCC(=O)N(CCc2ccccn2)C1 (stereo unspecified) | inactive
9 | O=C(C1CCCC1)N1CC2(CCN(Cc3c[nH]c4ccccc34)CC2)Cc2ccccc21 | active: 12.6 µM
10 | COc1ccc(CNC(=O)C[C@@H]2C[C@H]3O[C@H](CNCc4ccccc4Cl)[C@@H](O)[C@H]3O2)cc1 | inactive
11 | O=C(Nc1cccc2ccccc12)N[C@H]1CO[C@H]2[C@@H]1OC[C@@H]2Nc1nccc(-c2cccs2)n1 | inconclusive: 39.8 µM [inhibitor, partial curve, poor fit]
12 | COc1cccc(CNC2(Cc3cc(COc4ccccc4)on3)COC2)c1 | inactive
13 | C=CCN1C[C@@H]2C[C@@H](C(=O)NC)N(C(=O)CC(C)(C)C)c3cccc(c32)[S+]1(=O)[O-] | inconclusive: 35.5 µM [inhibitor, partial curve, poor fit]
14 | CC(C)CNC(=O)c1ccc2nc(-c3cccnc3)oc2c1 | inactive
15 | O=C(NC1CCCc2c1cnn2-c1ccccn1)c1cn[nH]c1-n1cnnn1 (stereo unspecified) | inactive
16 | CCCCCC(=O)N1CC(=O)N(Cc2ccc(C)cc2)CC(O)C1 (stereo unspecified) | inconclusive: 44.7 µM [inhibitor, partial curve]
17 | O=C(NCc1ccc(Cl)cc1)c1cc(-c2ccc(F)cc2)c2nncn2n1 | inactive
18 | COCCCN1CC2(CCN(S(=O)(=O)c3cc(C)cc(C)c3)CC2)CC1=O | inconclusive: 79.4 µM [inhibitor, partial curve, poor fit]
19 | CC(C)n1ccnc1CN1CCCC12CCN(c1ccc(C(F)(F)F)cn1)CC2 | inconclusive: 56.2 µM [inhibitor, partial curve, poor fit]
20 | O=C(NC1CCCCCC1)C1CCc2nnc(-c3cccc(C(F)(F)F)c3)n21 (stereo unspecified) | inconclusive: 79.4 µM [inhibitor, partial curve, poor fit]
21 | Cn1c(CN2CCCCC2)nnc1C1CCCN(C(=O)c2cocn2)C1 (stereo unspecified) | inactive
22 | Cc1ncsc1C(=O)N1CCC2(CC1)OC(=O)N(Cc1ccccc1)C2(C)c1cccnc1 (stereo unspecified) | active: 22.4 µM

Row | Structure (SMILES) | Potency
23 | COc1ccc(-c2c(C(=O)N3CCN(C(C)=O)CC3)nc3sccn23)cc1 | inactive
24 | CCC1=C(C(=O)OC)C(c2ccccc2)N2C(CC(=O)NCc3cccc(F)c3)=CSC2=N1 (stereo unspecified) | inconclusive: 44.7 µM [inhibitor, partial curve, poor fit]
25 | O=S(=O)(c1cccc(F)c1)N1CCC(n2cnnc2C2CC2)CC1 | inactive
26 | COc1ccc(NC(=O)c2cnc3c(c2)N(c2ccccc2OC)CCC3)cn1 | inconclusive: 22.4 µM [inhibitor, full curve, poor fit]
27 | CC1CCCN(c2ncnc3c2CN(c2cccnc2)C(=O)CN3C)C1 (stereo unspecified) | inactive
28 | CCOC(=O)C(Cc1cc(N2CCN(S(=O)(=O)c3c(Cl)cccc3Cl)CC2)ccc1Cl)OC (stereo unspecified) | inconclusive: 12.6 µM [inhibitor, full curve, poor fit]
29 | CC(C)(C)c1ccc(C(=O)N[C@H]2CC(C)(C)[C@@H]3C[C@@](C)(O)CC[C@]23CCC(=O)N2CCCC2)cc1 | inconclusive: 50.1 µM [inhibitor, partial curve, poor fit]
30 | O=C1CCN(Cc2cccnc2)CCCC(C(=O)NC2CCN(Cc3ccccc3)CC2)CCN1 (stereo unspecified) | inactive
31 | COc1ccccc1C(=O)N1CC(Oc2ccc(-c3nc(-c4ccccc4)no3)cc2)C1 | inconclusive: 15.8 µM [inhibitor, full curve, poor fit]
32 | COc1ccc(-c2cn(C)c(=O)n3cc(COc4ccnn4C)nc23)cc1 | inconclusive: 89.1 µM [inhibitor, partial curve]
33 | CC1(CCCCc2ccccc2)COc2ccc(C(=O)N3CCNC(=O)C3)cc2N1 (stereo unspecified) | inconclusive: 56.2 µM [inhibitor, partial curve, poor fit]
34 | O=C(Nc1nccs1)[C@@H]1C[C@@H](c2ccc(F)cc2)N(CCOc2ccccc2)C1 | inconclusive: 31.6 µM [inhibitor, full curve]
35 | CCNC(=O)c1cccnc1OC1CCN(C(=O)c2cc(F)ccc2F)C1 (stereo unspecified) | inactive
36 | COc1ccccc1C(=O)N1CCn2c(nn(-c3cccc(Cl)c3)c2=O)C1 | inconclusive: 44.7 µM [inhibitor, partial curve, poor fit]
37 | CCC(c1cccs1)N1C(=O)[C@H]2CN(S(=O)(=O)c3ccccc3Cl)C[C@H]2C1=O (stereo partly specified) | inactive
38 | COc1ccc(OCC2(C)COc3ccc(C(=O)NCc4ccco4)cc3N2)cc1 (stereo unspecified) | inconclusive: 44.7 µM [inhibitor, partial curve, poor fit]
39 | Cc1nn(-c2ccccc2)c2c1C(C)N(C1CCN(C(=O)c3ccc(F)cc3)C1)C2=O (stereo unspecified) | inconclusive: 44.7 µM [inhibitor, partial curve, poor fit]
40 | Cn1cccc1CN1CCC(Oc2ccccc2-c2nc(-c3ccncc3)no2)C1 (stereo unspecified) | active: 39.8 µM
41 | CCc1cc(=O)n(CC(=O)N2CCN(c3ccccc3OC)CC2)c(-c2ccccc2)n1 | inconclusive: 79.4 µM [inhibitor, partial curve, poor fit]
42 | COC[C@@H]1CN(C(=O)CCc2c(C)n[nH]c2C)C[C@H]1c1ccncc1 | inactive
43 | COc1cccc(Nc2ncc3c(n2)C(C)(C(=O)N2CCCC2)CC3)c1 (stereo unspecified) | inconclusive: 112 µM [inhibitor, single point]
44 | CCCCC1CCC(C(=O)NCC2CCN(c3cnn(C)c(=O)c3)C2)CC1 (stereo unspecified) | inconclusive: 39.8 µM [inhibitor, full curve]

Row | Structure (SMILES) | Potency
45 | CN(C)c1cccc(C(=O)N2CCN(C(=O)c3nnn4c3COC(c3ccc(Cl)cc3)C4)CC2)c1 (stereo unspecified) | inconclusive: 25.1 µM [inhibitor, partial curve]
46 | O=c1cc(-c2cccnc2)oc2c(NCc3ccccc3)nccc12 | active: 22.4 µM
47 | Cn1ncc2c(C(=O)N3CCN(Cc4ccccc4)CC3)cc(-c3ccc([S+](C)(=O)[O-])cc3)nc21 | inconclusive: 35.5 µM [inhibitor, partial curve, poor fit]
48 | Clc1ccccc1C1(c2ccnc(NC3CC3)n2)CCNCC1 | inconclusive: 89.1 µM [inhibitor, partial curve, poor fit]
49 | CNC(=O)[C@@H]1CN(C(=O)c2cc(C)on2)C[C@H]1COC | inactive
50 | O=C(c1cccc(Cl)c1)N1CCC(c2nn(Cc3ccccc3)c(=O)[nH]2)CC1 | inconclusive: 10 µM [inhibitor, full curve, poor fit] and inconclusive: 50.1 µM [inhibitor, partial curve, poor fit]
51 | COc1ncccc1-c1nc(-c2c(C)noc2C)cc2cc(C(C)C)oc12 | inconclusive: 56.2 µM [inhibitor, partial curve, poor fit]
52 | CNC(=O)c1cc(C2CC2)nc2c1c(C1CCCN1C(=O)NC(C)C)nn2C (stereo unspecified) | inactive
53 | O=C1NCc2ccccc2CC12CCN(Cc1cc(F)ccc1O)C2 (stereo unspecified) | inactive
54 | COc1ccccc1-c1ccc(CN2CCC(NC(=O)c3ccccc3F)C2)cc1 (stereo unspecified) | inconclusive: 50.1 µM [inhibitor, partial curve, poor fit]
55 | CN(C)Cc1cn2c(=O)n(C)cc(-c3ccc(O)c(F)c3)c2n1 | inconclusive: 89.1 µM [inhibitor, partial curve]
56 | CN(C)C(=O)N1CCCC(CCc2c(F)cccc2F)C1 (stereo unspecified) | inconclusive: 50.1 µM [inhibitor, partial curve, poor fit]
57 | COc1ccc(CN2CCC3(CC(=O)NC3=O)C2)cc1OCc1ccccc1 (stereo unspecified) | inactive
58 | CC1(c2ccccc2)N(Cc2ncccn2)C(=O)OC12CCN(C(=O)Cc1ccc3c(c1)OCO3)CC2 (stereo unspecified) | active: 39.8 µM
59 | CC(C)C[C@@H]1N[C@H](C(=O)NC2CCC2)Cc2cn(Cc3ccccn3)c3cccc1c23 | active: 35.5 µM
60 | CC(C)C[C@@H]1N[C@H](C(=O)NCc2ccccc2)Cc2c[nH]c3cccc1c23 | active: 31.6 µM
61 | CCn1ccnc1CN(C)Cc1cn(C)nc1-c1ccc(Oc2ccccc2)cc1 | inconclusive: 79.4 µM [inhibitor, partial curve, poor fit]
62 | COc1ccc(CC(=O)N2CC[C@@H](CC(=O)O)[C@@H](CCN(C)c3ccccc3)C2)cc1 | inconclusive: 112 µM [inhibitor, partial curve, poor fit]
63 | CCOc1cccc(CN2CCCC3(Cc4ccccc4CNC3=O)C2)c1 (stereo unspecified) | inactive
64 | c1cncc(Cc2noc(C3CN(Cc4ccsc4)C3)n2)c1 | active: 25.1 µM
65 | CC1=C[C@@H](CNC(=O)Cn2cnnn2)[C@H](C(C)C)C[C@H]1Cc1nc2ccc(C)cc2[nH]1 | inconclusive: 112 µM [inhibitor, partial curve, poor fit]
66 | O=C(Nc1cccc(C(F)(F)F)c1)c1nc2c(o1)CCN(CC1CC1)CC2 | inconclusive: 112 µM [inhibitor, single point]
